# The campaign covered roughly 310,000 compounds. About 2,200 (0.71%) showed an effect of 50% or more. Effects have a minus sign here. Some of the results follow.
# Molecular target: human ether-à-go-go-related gene (hERG) potassium channel (human, UniProt Q12809)
# Test: primary screen, population patch clamp on CHO cells stably expressing hERG
# Chain of human ether-à-go-go-related gene (hERG) potassium channel (Q12809 whole entry, looked up): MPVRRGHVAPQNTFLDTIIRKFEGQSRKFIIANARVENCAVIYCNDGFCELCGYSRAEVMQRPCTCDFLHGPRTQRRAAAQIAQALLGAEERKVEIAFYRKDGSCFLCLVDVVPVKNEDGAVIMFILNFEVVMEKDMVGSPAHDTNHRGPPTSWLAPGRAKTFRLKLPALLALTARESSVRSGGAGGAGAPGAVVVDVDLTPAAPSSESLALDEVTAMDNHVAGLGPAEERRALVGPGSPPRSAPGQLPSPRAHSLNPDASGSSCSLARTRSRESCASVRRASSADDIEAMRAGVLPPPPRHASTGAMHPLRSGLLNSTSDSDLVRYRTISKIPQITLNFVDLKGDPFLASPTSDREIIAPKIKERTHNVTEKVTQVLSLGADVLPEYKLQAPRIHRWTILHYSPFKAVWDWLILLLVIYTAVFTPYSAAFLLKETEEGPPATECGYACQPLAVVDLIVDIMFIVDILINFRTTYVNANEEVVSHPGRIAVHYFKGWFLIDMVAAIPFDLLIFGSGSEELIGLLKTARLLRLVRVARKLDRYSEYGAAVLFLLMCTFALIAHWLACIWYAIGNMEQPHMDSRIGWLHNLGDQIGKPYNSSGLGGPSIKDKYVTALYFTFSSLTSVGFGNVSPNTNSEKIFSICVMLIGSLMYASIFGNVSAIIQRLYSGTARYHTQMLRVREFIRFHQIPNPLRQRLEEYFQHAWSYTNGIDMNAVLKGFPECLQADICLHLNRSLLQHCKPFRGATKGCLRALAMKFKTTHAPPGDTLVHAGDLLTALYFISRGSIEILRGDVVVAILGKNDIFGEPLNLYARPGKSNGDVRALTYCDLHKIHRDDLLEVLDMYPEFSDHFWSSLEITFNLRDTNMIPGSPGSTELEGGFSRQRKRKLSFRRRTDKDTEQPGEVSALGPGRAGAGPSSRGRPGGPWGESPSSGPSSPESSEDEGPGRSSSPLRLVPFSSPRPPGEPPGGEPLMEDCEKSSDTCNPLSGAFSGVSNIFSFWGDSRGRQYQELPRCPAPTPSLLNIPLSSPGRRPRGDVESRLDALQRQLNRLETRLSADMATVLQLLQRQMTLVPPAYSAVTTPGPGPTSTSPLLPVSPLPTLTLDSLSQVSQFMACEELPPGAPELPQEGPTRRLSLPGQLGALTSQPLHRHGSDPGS
row,SMILES,"hERG current change (%, negative = inhibition) at 1uM [%]"
1,COc1ccc(-c2csc3ncnc(NCCO)c23)cc1,12.2
2,CCc1cc(C(=O)OC)c(NC(=O)C2CC(=O)NN2Cc2ccccc2)s1 (stereo not shown),-9.03
3,Cc1ccc(NC(=O)NC2C(NC(=O)Nc3ccc(C)cc3)N(C)C(=O)N2C)cc1 (stereo not shown),9.78
4,O=C(c1cccc(C(F)(F)F)c1)N1CCN(c2cc(=O)[nH]nc2-c2ccccc2)CC1,10.4
5,O=C(NNc1ncnc2sccc12)c1ccc(Cl)cc1,12.4
6,O=C(c1ccccc1OCc1ccc(Cl)cc1)N1CCN(c2ccccn2)CC1,1.14
7,Cc1ccc(NC(=O)CSc2ccccc2NC(=O)c2ccccc2)cc1Cl,1.54
8,O=C(Nc1cccc(S(=O)(=O)N2CCOCC2)c1)C1CCCN(C(=O)c2ccc(Cl)cc2)C1 (stereo not shown),-2.81
9,COc1ccc(Nc2cc(NCCCO)c([N+](=O)[O-])c3nonc23)cc1,20.4
10,CCn1c(=O)c2cc(C(=O)Nc3cc(C)on3)sc2c2ccccc21,-1.81
11,CC1CN(c2cc3nccnc3cc2F)CC(C)O1 (stereo not shown),-0.277
12,Cc1c(CN(C)C)c2c(n1Cc1ccccc1)C(=O)c1ccc(Br)cc1-2.Cl,-16.4
13,COc1ccc(Br)cc1/C=N/NC(=O)CNC(=O)C1COc2ccccc2O1 (stereo not shown),0.265
14,NS(=O)(=O)c1ccc(NC(=O)/C=C/c2cn(-c3ccccc3)nc2-c2cccc(Cl)c2)cc1,35.3
15,CCN(CC)S(=O)(=O)c1ccc(O)c(C(=O)OCC(=O)N(C)Cc2ccccc2)c1,-13.7
16,CCN1C(=O)/C(=C/C=C2/Sc3ccc4ccccc4c3N2CCO)SC1=S,10.3
17,Cc1cc2cc(CN(CCN3CCOCC3)C(=O)Nc3ccccc3F)c(=O)[nH]c2cc1C,6.58
18,O=C(Nc1ccc(OCC(F)(F)C(F)F)c(C(F)(F)F)c1)c1ccccc1O,6.76
19,CC1CC(C)(C)CC(=O)C1C(=O)c1ccccc1 (stereo not shown),14.8
20,O=S(=O)(NCc1ccccc1)c1ccc(F)cc1Br,0.966
21,O=C(NCc1ccccc1)c1ccc(Cl)c(NC2=NC3CS(=O)(=O)CC3S2)c1 (stereo not shown),7.98
22,Cc1cc(C)c2c(C)nn(C3CCCCC3)c2n1,11.1
23,COc1cc(CN2CC(=O)N(c3ccccc3Cl)C2=S)cc(OC)c1OC,17.3
24,COc1ccccc1COCC(O)CNCC1(N2CCCCC2)CCCCC1.O=C(O)C(=O)O (stereo not shown),0.206
25,O=C(CCNC(=O)N1CCn2c1nc1ccccc12)NCc1ccc(Cl)cc1,5.76
26,Cc1nonc1CC(=O)N1CCc2c([nH]c3ccccc23)C1c1ccccc1F (stereo not shown),16.6
27,Cc1cccc(NC(=O)NC2CCCCCCC2)c1,16.6
28,COCCCNC(=O)c1ccccc1C(F)(F)F,3.53

row,SMILES,"hERG current change (%, negative = inhibition) at 1uM [%]"
1,Cc1nn(-c2ccccc2)c(N2CCCC2)c1/C=N/O,-14.1
2,Cc1cccc(C)c1NC(=O)COC(=O)CCc1ccc(S(=O)(=O)N2CCCCC2)cc1,9.46
3,CS/C(=N\S(=O)(=O)c1cccs1)Nc1ccc(Cl)cc1,5.7
4,O=C(Nc1ccc(F)cc1)Nc1ccc(S(=O)(=O)N2CCCC2)cc1,11.9
5,CCOC(=O)CSc1nc2sc(C)c(C)c2c(=O)n1N,13.7
6,CCOC(=O)c1cc2n(n1)C(C(F)(F)F)CC(C)N2 (stereo not shown),13.3
7,O=C(NC1CC1)C1CCN(Cc2cnn(-c3ccccc3)c2-n2cccc2)CC1,12.4
8,COc1cccc(C(=O)Nc2cccc3c2ccc2cccn23)c1,4.47
9,Cc1nnc(Nc2ccccn2)c2ccccc12,-16.2
10,O=C(NCc1ccc(Cl)cc1)c1noc2c1CCCCC2,-6.49
11,OC(C#CCN1CCCC1)(c1ccccc1)c1cccnc1 (stereo not shown),8.13
12,COC(=O)C1=C(C(=O)OC)[C@@H]2N(Cc3ccccc3)c3ccccc3[C@@]23C[C@@H](C(=O)OC)N(C(C)=O)C3=N1,14.4
13,Cc1cc(C)c2nc(-c3ccccn3)cc(C(=O)NCc3ccco3)c2c1,10.6
14,Cc1nc2ccc(C(=O)Nc3ccc(N(C)C)cc3)cc2s1,15.3
15,Cc1cc([N+](=O)[O-])nn1CC(=O)N(C)Cc1ccccc1,12.5
16,O=C(CSc1nnc(SCc2ccc(Cl)cc2)s1)N/N=C/c1ccccc1C(=O)O,7.06
17,O=C(c1cc(F)c(F)cc1Cl)N1CCN(CCc2ccccc2)CC1,-34.7
18,Cc1ccc(-n2c(C)cc(C(=O)COc3cccnc3[N+](=O)[O-])c2C)cc1,13
19,Oc1ccc2nnc3c(Br)cnn3c2c1,15.4
20,Cc1cc(C)cc(NS(=O)(=O)c2cc3[nH]c(=O)c(=O)[nH]c3cc2C)c1,9.98
21,COc1ccccc1N1CCc2c(C)nc3c(OC)cccc3c21,-23.1
22,O=C(NC(=O)c1ccccc1)Nc1ccccc1O,10.5
23,C[C@]12C(=O)N(c3ccc(Br)cc3)C(=O)N1[C@@H]1c3ccccc3OC[C@@H]1[C@H]2c1ccccc1,16.9
24,COCCn1c(SCC(=O)c2c[nH]c3ccccc23)nnc1-c1ccncc1,7.84
25,COc1ccc(C(=O)NCC(=O)OC2CCCCC2=O)cc1 (stereo not shown),-0.0213
26,COc1ccc([N+](=O)[O-])cc1N(CC(=O)Nc1ccccc1C(=O)NC(C)C)S(C)(=O)=O,12.9
27,COCCNC(=O)Cn1cnc2sc(C)c(S(=O)(=O)N3CCC(C)CC3)c2c1=O,10.8

# Source: article PMC4336329 (PLoS ONE, 2015)
